# From PubChem BioAssay AID1159614 (National Center for Advancing Translational Sciences (NCATS), 2016)
# In all, about 45,000 compounds went through this assay and about 65 (0.1%) were called active. Calls follow the shape of the dose curve; as a rule, active = well fitted activation curve with a large enough effect; inconclusive = small, poorly fitted or top-dose-only effect; inactive = no such curve, though single readings can be large or run the other way. Some of the results follow.
# Biological target: Galactocerebrosidase (Homo sapiens) (UniProt P54803)
# Assay: A Novel Cell-Based Assay to Identify Small Molecules for B -Galactocerebrosidase; also: 0% is about no effect; nearly all actives have a fitted effect of over 65% in size
# Details: 145M-Twi-hGALC-G270D cells (Twitcher mouse brain line with human GALC G270D), HMU-beta-Gal fluorescence, 48 h; series mostly up to 57.5 µM; activation: at the top concentration
# Outline: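 Mutant human GALC (G270D), stably expressed in a Twitcher mouse brain cell line lacking endogenous GALC, is measured in live-treated cells via 6-hexadecanoylamino-4-methylumbelliferyl-β-galactoside hydrolysis (0.1 mM final, pH 5.2) with fluorescent detection.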
# Sequence of UniProt P54803 (P54803 whole entry, looked up): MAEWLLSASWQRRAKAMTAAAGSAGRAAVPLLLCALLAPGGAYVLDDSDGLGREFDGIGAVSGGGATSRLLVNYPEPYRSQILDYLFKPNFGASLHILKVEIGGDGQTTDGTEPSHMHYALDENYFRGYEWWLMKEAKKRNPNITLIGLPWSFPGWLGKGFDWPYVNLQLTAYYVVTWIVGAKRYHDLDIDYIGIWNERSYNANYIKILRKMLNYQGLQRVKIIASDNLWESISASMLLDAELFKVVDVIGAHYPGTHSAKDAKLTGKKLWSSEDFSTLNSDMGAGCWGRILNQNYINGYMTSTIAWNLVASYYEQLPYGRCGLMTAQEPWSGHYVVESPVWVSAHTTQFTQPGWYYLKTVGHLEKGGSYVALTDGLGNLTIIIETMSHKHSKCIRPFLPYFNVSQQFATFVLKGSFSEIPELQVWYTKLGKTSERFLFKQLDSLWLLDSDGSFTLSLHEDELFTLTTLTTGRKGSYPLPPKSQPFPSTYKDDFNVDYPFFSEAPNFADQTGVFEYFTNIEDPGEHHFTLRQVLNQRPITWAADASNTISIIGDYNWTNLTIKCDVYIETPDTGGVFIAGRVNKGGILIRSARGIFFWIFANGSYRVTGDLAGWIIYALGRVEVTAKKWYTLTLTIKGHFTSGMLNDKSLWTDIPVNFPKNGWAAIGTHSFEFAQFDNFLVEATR
row,SMILES,activation
1,Cn1c(=O)c(=O)n(C)c2cc(N3CCOCC3)c(NS(=O)(=O)c3ccc(Cl)cc3)cc21,inactive: -10.7%
2,COC(=O)c1scc(-c2ccc(C)cc2)c1S(=O)(=O)Nc1cc(Cl)ccc1C,inactive: -45.7%
3,O=S(=O)(NCCc1nnc2ccc(SCc3ccc(Cl)cc3Cl)nn12)c1ccccc1,inactive: -5.76%
4,CCOC(=O)c1ccc(NC(=O)c2c(NC(C)=O)sc3c2CCC(C)C3)cc1 (configuration not stated),inactive: -8.93%
5,CCOc1ccc(CCNC(=O)c2ccc3c(Cl)c4c(nc3c2)CCCC4)cc1,inactive: -12.3%
6,COc1cccc(C(c2sc3nc(-c4ccco4)nn3c2O)N2CCC(O)CC2)c1 (configuration not stated),inactive: -21%
7,Cc1ccc(CNC(=O)c2ccc3nc(N4CCCCC4)sc3c2)cc1,inactive: -9.05%
8,CCOc1ccccc1NC(=O)c1sc2nc3n(c(=O)c2c1C)CCCCC3,inactive: -16.9%
9,CN(C(=O)c1ccc2c(c1)N(Cc1cccc(Cl)c1)C(=O)c1ccccc1S2=O)C1CCCCC1 (configuration not stated),inactive: -36%
10,CCOC(=O)C1=C(CS(=O)(=O)c2ccc(C)cc2)NC(=O)NC1c1ccc(C(C)C)cc1 (configuration not stated),inactive: -14.4%
11,COc1ccc(NC(=O)CCS(=O)(=O)c2cccc3nonc23)cc1Cl,inactive: -12.6%
12,Cc1ccc(CSCc2ccc(C(=O)NCCc3ccc(Cl)cc3)o2)cc1,inactive: -11.5%
13,O=c1[nH]c(=O)c2[nH]c(=O)[nH]c2[nH]1,inactive: -11% [at 11.5 µM]
14,CC(C)Oc1ccc(CNC(=O)CN2C(=O)CCc3cc(S(=O)(=O)N4CCCCC4)ccc32)cc1,inactive: 1.75%
15,Cc1cc(C)cc(N2C(=O)CSC23C(=O)N(CC(=O)NCCc2ccccc2)c2ccccc23)c1 (configuration not stated),inactive: -12.3%
16,O=C(CSC1=Nc2ccccc2N=C(c2ccc(F)cc2)C1)NCc1ccc(F)cc1,inactive: 2.37%
17,Cc1ccc(C)c(CN2C(=O)CSc3ccc(C(=O)NCc4ccc(F)cc4)cc32)c1,inactive: -7.56%
18,COc1ccccc1NCc1cccn1-c1nnc(N2CCOCC2)s1,inactive: -20.5%
19,Cc1oc2ncn(C)c(=O)c2c1C(=O)NC(C)c1ccccc1 (configuration not stated),inactive: -6.27%
20,COc1ccc(N2CCN(C(CNC(=O)C(=O)NCCCN(C)C)c3cccnc3)CC2)cc1 (configuration not stated),inactive: -9%
21,CCOc1c(Cl)cc(Cl)cc1CNCCSc1nnnn1C,inactive: 4.71%

row,SMILES,activation
1,Cc1ccc(CSc2nc3cccnc3n2Cc2ccc(C(=O)NCCc3ccccc3)cc2)cc1,inactive: -9.53%
2,CCC(=O)N1c2nc(-c3ccco3)nn2C2(CCCCC2)[C@@H]2CCCC[C@@H]21,inactive: -18.5%
3,CCS(=O)(=O)N1CCc2cc(C(=O)Nc3cccc(Cl)c3C)ccc21,inactive: -17.7%
4,Cc1nc2c(-c3ccccc3)c(C)nn2c(C)c1CCC(=O)NCc1ccccc1Cl,inactive: -1.43%
5,O=C(Nc1cc2c(cc1C(=O)c1ccccc1Cl)OCCO2)c1ccc(Br)cc1,inactive: -3.11%
6,COc1ccc(-c2cn3nc(N4CCCC(C(=O)Nc5ccc(C)c(C)c5)C4)sc3n2)cc1 (configuration not stated),inactive: -12.5%
7,FC(F)(F)c1cc(-c2ccccc2)nc2cc(-c3ccc(Br)cc3)nn12,inactive: -8.09%
8,Cc1ccc(-n2nnnc2CNC(=O)c2ccccc2S(C)(=O)=O)cc1C,inactive: -16%
9,CCCn1cc(S(=O)(=O)c2cc(C)ccc2C)c(=O)c2cc(F)c(N3CCOCC3)cc21,inactive: -16.1%
10,COC(=O)c1c(SCC(=O)Nc2cc(C)cc(C)c2)[nH]c2ccccc2c1=O,inactive: -12.5%
11,CCc1ccc2occ(CC(=O)Nc3c(C(=O)Nc4ccc(C)cc4)oc4ccccc34)c2c1,inactive: -17.9%
12,O=C(CCC(=O)OCC(=O)c1ccc(Cl)cc1)Nc1ccc(Oc2ccccc2)cc1,inactive: -12.3%
13,Cc1ccc(CSc2nc(-c3cccs3)ccc2C#N)cc1,inactive: -8.88%
14,COc1ccc(-n2nc(C(=O)Nc3ccccc3OC)c3c4ccccc4n(C)c3c2=O)cc1Cl,inactive: -5.08%
15,CC(C)c1cnc2c(c1SCC(=O)Nc1ccccc1C(F)(F)F)c(=O)n(C)c(=O)n2C,inactive: -10.2%
16,COc1cccc(-c2nn(C)c3sc(C(=O)NCCc4ccc(Cl)cc4)cc23)c1,inactive: -15.5%
17,CCCNc1ncnc2onc(C)c12,inactive: -2.28%
18,Cc1ccc(C(=O)n2nc(C)c(S(=O)(=O)N3CCOCC3)c2C)cc1,inactive: 5.09%
19,CCOc1ccc(NC(=O)NCCCN2CCN(c3ccc(F)cc3)CC2)cc1,inactive: -14.3%
20,Cc1nnc(SCc2ccc(Cl)cc2)c2cc3occc3n12,inactive: -12.7%
21,Cc1cccc(N2CCN(c3cc(C)nc4c(-c5ccc(Cl)cc5)c(C)nn34)CC2C)c1 (configuration not stated),inactive: -10.4%

row,SMILES,activation
1,Cc1ccccc1S(=O)(=O)Cc1ccc(C(=O)NC2CCCCC2)o1,inactive: 2.74%
2,COc1ccc(NC(=O)c2oc3ccccc3c2NC(=O)c2cc3ccccc3o2)cc1,inactive: 6.11%
3,COc1ccc2c(c1)CC(NC(=O)Nc1c(C)cc(C)cc1C)CO2 (configuration not stated),inactive: -10%
4,Cc1ccc(OC(=O)c2cc(-c3ccc4c(c3)OCCO4)on2)cc1C,inactive: -9.4%
5,CCOc1ccc(NS(=O)(=O)c2ccc3[nH]cc(C(=O)N(C)Cc4ccccc4)c(=O)c3c2)cc1,inactive: 7.21%
6,CC(=O)N1CCc2c(sc3c2c(=O)n(-c2ccccc2)c(=O)n3CC(=O)Nc2ccccc2C)C1,inactive: -7.24%
7,COc1ccc(C)cc1S(=O)(=O)N1CCN(c2cccc(Cl)c2)CC1,inactive: -40.6%
8,Cc1cccc(-n2c3nc(=O)[nH]c(=O)c-3cc3c(Cl)cccc32)c1C,inactive: 1.98%
9,CCOc1ccc(NC(=O)CSc2nnc3scc(-c4ccc(Cl)cc4)n23)cc1,inactive: -13.9%
10,CCOc1cccc2cc(-c3nc4ccc(C(=O)O)cc4[nH]3)c(=O)oc12,inactive: -9.21%
11,Cc1oc2ncn(CC(C)C)c(=O)c2c1C(=O)NCCCN1CCCCC1,inactive: -8.07%
12,O=C(COc1ccc(F)cc1)Nc1ccc2nc(SCC(=O)N3CCc4ccccc43)sc2c1,inactive: -16.6%
13,COc1ccccc1CNC(=O)c1ccc(N2CCCC2)c(NC(=O)NCCC(C)C)c1,inactive: -18%
14,Cc1cc(C)c(NC(=O)c2cc3sc(Cl)cc3n2C)c(C)c1,inactive: -0.544%
15,COc1cccc(NC(=O)CSc2ncc(S(=O)(=O)c3ccc(C)c(C)c3)c(=O)[nH]2)c1,inactive: -13.2%
16,O=C(NCC(c1ccco1)S(=O)(=O)c1cccs1)c1ccc(F)cc1 (configuration not stated),inactive: -5.24%
17,Cc1ccc(C)c(CN2C(=O)c3ccccc3S(=O)(=O)c3ccc(C(=O)N4CCCCCC4)cc32)c1,inactive: 9.41%
18,CCOC(=O)c1ccc2oc(=O)n(Cc3ccccc3)c2c1,inactive: -4.27%
19,CC(=O)Nc1ccc(C2Sc3ccccc3NC3=C2C(=O)c2ccccc23)cc1 (configuration not stated),inactive: -5.61%
20,CCc1c(-c2ccccc2)nc2ccccc2c1C(=O)NCCc1ccccc1,inactive: -14.2%
